In PMC11911400, “Mechanism of ASF1 engagement by CDAN1” (Nature Communications, 2025):
Numbering of substitutions follows the chain as printed. These are yes or no findings as the source states them, for the method shown. Binding seen in cells or lysates may run through a third protein. Some results given as binding are weak or reduced against the parent protein; the word gives no strength. For some of these results: Where a sequence is shown, tags or fusion partners need not be part of it.

The chains behind the UniProt entries cited, without tags or fusion partners.
UniProt Q9Y294: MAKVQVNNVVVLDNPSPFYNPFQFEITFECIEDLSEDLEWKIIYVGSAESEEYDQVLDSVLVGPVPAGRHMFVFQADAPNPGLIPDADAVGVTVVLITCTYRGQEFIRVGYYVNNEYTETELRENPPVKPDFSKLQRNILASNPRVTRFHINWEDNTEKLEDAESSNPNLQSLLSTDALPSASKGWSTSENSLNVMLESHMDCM
UniProt Q9NVP2: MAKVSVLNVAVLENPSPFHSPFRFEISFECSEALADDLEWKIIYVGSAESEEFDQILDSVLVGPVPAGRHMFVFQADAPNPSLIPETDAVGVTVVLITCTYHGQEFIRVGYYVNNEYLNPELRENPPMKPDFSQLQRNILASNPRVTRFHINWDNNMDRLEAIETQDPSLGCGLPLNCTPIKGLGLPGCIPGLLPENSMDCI

T1: Strep-CDAN1 BDA1* BDA2* (both B-domains mutated) (human) (UniProt Q8IWY9)
T1 sequence: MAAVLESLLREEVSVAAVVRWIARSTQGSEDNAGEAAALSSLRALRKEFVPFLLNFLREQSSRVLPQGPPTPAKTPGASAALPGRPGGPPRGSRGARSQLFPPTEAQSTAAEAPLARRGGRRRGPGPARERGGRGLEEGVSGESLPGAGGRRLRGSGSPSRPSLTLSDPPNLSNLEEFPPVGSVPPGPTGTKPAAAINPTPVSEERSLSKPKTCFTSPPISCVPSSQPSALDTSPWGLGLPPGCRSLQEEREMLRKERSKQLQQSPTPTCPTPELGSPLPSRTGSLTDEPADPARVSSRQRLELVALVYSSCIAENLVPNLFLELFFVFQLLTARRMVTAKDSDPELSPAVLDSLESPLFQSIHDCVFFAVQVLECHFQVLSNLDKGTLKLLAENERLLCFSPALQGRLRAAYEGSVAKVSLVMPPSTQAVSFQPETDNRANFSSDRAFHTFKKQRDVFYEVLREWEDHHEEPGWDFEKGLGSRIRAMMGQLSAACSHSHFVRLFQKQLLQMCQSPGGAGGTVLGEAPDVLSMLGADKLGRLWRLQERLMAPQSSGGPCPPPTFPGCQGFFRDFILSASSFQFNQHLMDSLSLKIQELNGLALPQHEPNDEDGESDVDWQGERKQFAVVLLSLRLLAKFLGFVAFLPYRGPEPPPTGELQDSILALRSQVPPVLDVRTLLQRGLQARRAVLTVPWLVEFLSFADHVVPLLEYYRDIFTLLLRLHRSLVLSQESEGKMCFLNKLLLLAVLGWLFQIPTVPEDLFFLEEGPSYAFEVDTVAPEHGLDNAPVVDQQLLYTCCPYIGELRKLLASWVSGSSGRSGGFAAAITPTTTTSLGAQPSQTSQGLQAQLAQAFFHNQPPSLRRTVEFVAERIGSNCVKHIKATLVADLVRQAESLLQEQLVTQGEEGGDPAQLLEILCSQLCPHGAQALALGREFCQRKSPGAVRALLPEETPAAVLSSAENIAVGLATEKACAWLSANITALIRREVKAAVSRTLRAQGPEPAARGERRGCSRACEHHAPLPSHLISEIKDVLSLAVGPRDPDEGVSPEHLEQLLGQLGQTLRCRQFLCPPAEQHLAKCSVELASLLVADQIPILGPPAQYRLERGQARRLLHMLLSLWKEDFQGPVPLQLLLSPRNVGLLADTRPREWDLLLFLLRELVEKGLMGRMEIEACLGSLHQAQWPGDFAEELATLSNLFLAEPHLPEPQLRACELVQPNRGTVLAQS

T2: Strep-tagged CDAN1 (ST-CDAN1), wildtype (human, UniProt Q8IWY9 1-1227)
T2 construct: Codanin-1 (CDAN1), human, 1227 residues; cDNA from Horizon Discovery/Dharmacon, its point mutation S421F corrected; same construct used in Expi293 and in Flp-In 293 T-REx cells; dimer by SEC-MALS and cryo-EM; also called Strep-CDAN1; WT CDAN1; source: Expi293, transiently transfected, in lysate and purified in complexes (anti-FLAG, Strep-Tactin); Flp-In 293 T-REx, transiently transfected, in …
T2 sequence: T1 sequence with A194S, A195R, A196R, A824M, A825R, A826K

B1: FLAG-tagged CDIN1 (F-CDIN1) (natural protein, UniProt Q9Y2V0 1-281, looked up)
chain: MILTKAQYDEIAQCLVSVPPTRQSLRKLKQRFPSQSQATLLSIFSQEYQKHIKRTHAKHHTSEAIESYYQRYLNGVVKNGAAPVLLDLANEVDYAPSLMARLILERFLQEHEETPPSKSIINSMLRDPSQIPDGVLANQVYQCIVNDCCYGPLVDCIKHAIGHEHEVLLRDLLLEKNLSFLDEDQLRAKGYDKTPDFILQVPVAVEGHIIHWIESKASFGDECSHHAYLHDQFWSYWNRFGPGLVIYWYGFIQELDCNRERGILLKACFPTNIVTLCHSIA
notes: C15orf41); cDNA synthesized by IDT; source: Expi293, transiently transfected, in lysate and purified in complexes (anti-FLAG, Strep-Tactin); not shown: 3xFLAG, N-terminal, kept

Key:
[1] = target: T1, Strep-CDAN1 BDA1* BDA2* (both B-domains mutated) (human); experiment: pull-down; Strep-Tactin pulldown of transiently transfected ST-CDAN1 variants from Flp-In 293 T-REx lysates; endogenous ASF1A, ASF1B and CDIN1 detected by immunoblotting; IP buffer with 1% Triton X-100, 1 hr at 4 °C
[2] = target: T2, Strep-tagged CDAN1 (ST-CDAN1), wildtype; experiment: pull-down; Strep-Tactin pulldown of ST-CDAN1 from the anti-FLAG eluate (second step of the tandem purification, Expi293); wash buffer without Triton X-100; elution with 10 mM desthiobiotin; immunoblotting

Molecule | binding [1] | binding [2]
endogenous ASF1A (from UniProt Q9Y294 1-204) | no binding | binds
endogenous ASF1B (from UniProt Q9NVP2 1-202) | no binding | –
B1 | – | binds
